Each structure is given as a SMILES string. In all, about 310,000 compounds went through this assay and about 2,200 (0.71%) showed an effect of 50% or more. The effect is printed as a negative number. Some of the results follow.

For the experiment, the target named is human ether-à-go-go-related gene (hERG) potassium channel (human, UniProt Q12809). Description: primary screen, population patch clamp on CHO cells stably expressing hERG.
Chain of human ether-à-go-go-related gene (hERG) potassium channel (Q12809 whole entry, looked up): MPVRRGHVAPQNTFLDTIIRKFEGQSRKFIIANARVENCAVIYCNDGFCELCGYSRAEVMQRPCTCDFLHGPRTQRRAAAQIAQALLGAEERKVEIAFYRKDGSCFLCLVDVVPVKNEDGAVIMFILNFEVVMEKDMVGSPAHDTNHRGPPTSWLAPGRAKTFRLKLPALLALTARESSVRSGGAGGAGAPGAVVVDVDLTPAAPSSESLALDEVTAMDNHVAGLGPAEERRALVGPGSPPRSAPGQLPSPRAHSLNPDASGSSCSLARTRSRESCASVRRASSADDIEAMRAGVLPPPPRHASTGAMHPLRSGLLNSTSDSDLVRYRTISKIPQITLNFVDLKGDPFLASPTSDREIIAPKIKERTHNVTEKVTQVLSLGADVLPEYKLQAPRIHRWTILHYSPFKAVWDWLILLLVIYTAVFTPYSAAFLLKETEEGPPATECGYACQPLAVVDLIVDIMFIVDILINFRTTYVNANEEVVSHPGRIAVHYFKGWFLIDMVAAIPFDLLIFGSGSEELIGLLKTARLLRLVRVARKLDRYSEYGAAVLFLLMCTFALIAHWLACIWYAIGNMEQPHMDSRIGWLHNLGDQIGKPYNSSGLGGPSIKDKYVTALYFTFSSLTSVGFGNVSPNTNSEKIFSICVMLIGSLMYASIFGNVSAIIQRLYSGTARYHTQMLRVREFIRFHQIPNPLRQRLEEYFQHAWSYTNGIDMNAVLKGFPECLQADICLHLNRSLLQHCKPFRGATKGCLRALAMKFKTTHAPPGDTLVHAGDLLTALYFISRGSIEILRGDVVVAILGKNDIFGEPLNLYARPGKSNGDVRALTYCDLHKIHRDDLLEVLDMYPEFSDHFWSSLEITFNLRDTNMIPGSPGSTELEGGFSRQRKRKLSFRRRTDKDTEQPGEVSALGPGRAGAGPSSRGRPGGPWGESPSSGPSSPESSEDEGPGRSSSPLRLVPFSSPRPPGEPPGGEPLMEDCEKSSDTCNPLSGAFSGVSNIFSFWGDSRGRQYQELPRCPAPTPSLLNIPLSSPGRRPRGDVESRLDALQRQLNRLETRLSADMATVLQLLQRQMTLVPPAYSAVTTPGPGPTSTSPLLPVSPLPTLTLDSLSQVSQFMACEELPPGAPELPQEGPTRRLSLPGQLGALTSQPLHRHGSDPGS
Take `CC(NS(=O)(=O)c1ccc(Cl)cc1)C(c1cccs1)N1CCN(C)CC1` (stereo not shown): the “hERG current change (%, negative = inhibition) at 1uM” value is given as -4.72%. For `CC(C)CN(C(=O)CSc1nnnn1-c1ccccc1)c1c(N)n(CC(C)C)c(=O)[nH]c1=O`, the “hERG current change (%, negative = inhibition) at 1uM” value is given as 8.73%. `Cc1cc(S(=O)(=O)NC2CCCCC2)ccc1-n1cnnn1`: the “hERG current change (%, negative = inhibition) at 1uM” value is 10.4%. As to `COc1ccc(C(=O)N/C(=C\c2cn(C)c3ccccc23)C(=O)N2CCOCC2)cc1`, the “hERG current change (%, negative = inhibition) at 1uM” value was -7.16%. Under `O=C(NNS(=O)(=O)c1ccc(Cl)cc1Cl)c1cc2ncc(C(F)(F)F)cc2s1` stands 23.4%. On to `Oc1ccc(N=Nc2n[nH]c(-c3ccc(Cl)cc3)n2)cc1`, for which the “hERG current change (%, negative = inhibition) at 1uM” value worked out at 8.39%.

Take `COc1ccc(C2C=C(c3ccccc3)Nc3nc(NC(C)=O)nn32)cc1` (stereo not shown): the “hERG current change (%, negative = inhibition) at 1uM” value worked out at 7.65%. For the compound `COc1cc(/C=C/C(=O)OCC(=O)Nc2cc(C(F)(F)F)ccc2N2CCOCC2)ccc1O`, the “hERG current change (%, negative = inhibition) at 1uM” value amounted to 4.12%. For `Nc1nc(CSC(=S)N2CCN(c3ccccc3)CC2)nc(Nc2ccccc2)n1`, the “hERG current change (%, negative = inhibition) at 1uM” value is given as 8.61%. `COc1ccc(CCn2c(=O)[nH]c3cc(C(=O)NCCN4CCOCC4)ccc3c2=O)cc1OC`: the “hERG current change (%, negative = inhibition) at 1uM” value amounted to 8.23%. `Cc1ccc(NC(=O)C(=O)NCCN2CCN(Cc3ccc([N+](=O)[O-])cc3)CC2)cc1`: the “hERG current change (%, negative = inhibition) at 1uM” value was -53.3%. For `COC(=O)/C(=C\c1ccc([N+](=O)[O-])o1)NC(=O)c1ccccc1`, the “hERG current change (%, negative = inhibition) at 1uM” value is -2.26%. For `C[N+]1(CCCCSc2ccc(O)cc2)CCCCC1.[I-]`, the “hERG current change (%, negative = inhibition) at 1uM” value was -5.92%. Take `O=C(NCC1CCCO1)/C(=C/c1ccc(Cl)cc1)NC(=O)c1ccccc1` (stereo not shown): the “hERG current change (%, negative = inhibition) at 1uM” value was 3.15%. Turning to `Cc1ccc(-c2c(NCCc3ccccc3)c(=O)c2=O)cc1`, the “hERG current change (%, negative = inhibition) at 1uM” value came out at 16%. Take `Cc1ccc2cc3cc(C(=O)NCCCN4CCCC4)oc3nc2c1`: the “hERG current change (%, negative = inhibition) at 1uM” value came out at 20.6%. In the case of `CCOC(=O)COc1nc(C)cc(C(F)(F)F)c1C#N`, the “hERG current change (%, negative = inhibition) at 1uM” value was determined as 7.77%.

Regarding `O=C(Nc1ccccc1)N1CCN(Cc2ccccc2)CC1.O=C(O)C(=O)O`, the “hERG current change (%, negative = inhibition) at 1uM” value turned out to be 10.9%. As to `CC1=C(C(=O)NC2CCCc3c2cnn3-c2cc(F)cc(F)c2)OCCO1` (stereo not shown), the “hERG current change (%, negative = inhibition) at 1uM” value is -1.27%. Turning to `Cn1nnnc1SCc1nnc(-c2ccc(Cl)cc2)o1`, the “hERG current change (%, negative = inhibition) at 1uM” value is on record as 10.3%. On to `C[C@H]1C/C=C/[C@H]2[C@H](O)[C@H](C)[C@@](C)(O)[C@H]3[C@H](Cc4ccccc4)NC(=O)[C@]32[C@H](O)/C=C/[C@](C)(O)C1`, for which the “hERG current change (%, negative = inhibition) at 1uM” value is given as 17.4%.

In the case of `Cc1ccc(C(C)C)c(OCCSc2nc3ccccc3n2CC(=O)O)c1`, the “hERG current change (%, negative = inhibition) at 1uM” value is 10.1%. As for `COc1ccc(F)cc1C(=O)C1CCCN(C(=O)c2ocnc2C)C1` (stereo not shown), the “hERG current change (%, negative = inhibition) at 1uM” value was -0.32%. As for `O=C(N/N=C/c1ccc([N+](=O)[O-])o1)C1CC1`, the figure is 15.1%; as for `Cc1cc(O)c(Oc2cc(C)cc(O)c2O)c(O)c1`, 16.4%.

Turning to `CCC(=O)Nc1nnc(SCc2ccc(F)cc2)s1`, the “hERG current change (%, negative = inhibition) at 1uM” value is 5.36%. Regarding `O=C(CNC(=O)C1COc2ccccc2O1)N/N=C/c1ccc(O)cc1O` (stereo not shown), the “hERG current change (%, negative = inhibition) at 1uM” value was -0.349%. With `C/C(=N\NC(=O)c1nc2ccccn2c1C)c1ccco1`, the “hERG current change (%, negative = inhibition) at 1uM” value stood at 3.86%. As for `Cc1[nH]c2ccccc2c1C(=O)CSc1nc2cc(S(=O)(=O)N3CCCCC3)ccc2o1`, the figure is 9.62%; as for `CC1CN(C(=O)c2cc(S(=O)(=O)N(C)c3ccc(F)cc3)ccc2Cl)CC(C)O1` (stereo not shown), 11.4%; as for `COc1ccc2c(c1)C(=O)N(c1ccccc1OC)C(=O)C2(C)C`, -1.44%. Take `Cc1cc2sc(C(=O)O)c(C)c2s1`: the “hERG current change (%, negative = inhibition) at 1uM” value worked out at 4.13%. `Cn1c(=O)cc(SCC(=O)NCc2ccco2)c2ccccc21`: the “hERG current change (%, negative = inhibition) at 1uM” value is recorded as 10.3%.

For `CN(NS(=O)(=O)c1ccc(Br)cc1)c1nc(C(F)(F)F)nc2ccccc12`, the “hERG current change (%, negative = inhibition) at 1uM” value stood at 11.6%.

Take `CS(=O)(=O)N(CC(=O)NCCSc1ccccc1)c1ccc2c(c1)OCO2`: the “hERG current change (%, negative = inhibition) at 1uM” value is 5.78%. As for `NS(=O)(=O)c1ccc(N/C=C\C(=O)c2ccc3ccccc3c2)cc1`, the figure is 9.29%. With `CC(OCC(O)CN(C)CCOc1ccccc1)c1ccc(Cl)cc1` (stereo not shown), the “hERG current change (%, negative = inhibition) at 1uM” value is recorded as 2.33%. For `CCCCC(NS(=O)(=O)c1ccc(C)cc1)C(=O)Oc1ccc2c3c(c(=O)oc2c1)CCC3` (stereo not shown), the “hERG current change (%, negative = inhibition) at 1uM” value worked out at 8.58%. `Cl.Nc1cccc2c(O)cccc12`: the “hERG current change (%, negative = inhibition) at 1uM” value is 9.58%. For `C=CCn1c(SCC(=O)c2cc(C)n(Cc3cccs3)c2C)nnc1-c1ccncc1`, the “hERG current change (%, negative = inhibition) at 1uM” value came to 5.07%.

As to `O=C(Nc1cc([N+](=O)[O-])ccc1Cl)c1cccnc1`, the “hERG current change (%, negative = inhibition) at 1uM” value worked out at 15.3%. On to `CCCN(C(=O)COC(=O)CSc1ccc([N+](=O)[O-])cc1)C1CCS(=O)(=O)C1` (stereo not shown), for which the “hERG current change (%, negative = inhibition) at 1uM” value was 5.95%. As for `CC(=O)Nc1sc(C)c(C)c1CN1CCN(Cc2ccccc2)CC1`, the “hERG current change (%, negative = inhibition) at 1uM” value is listed as 3.28%.

(Values after publication PMC4336329 (PLoS ONE, 2015).)
